Measured values from the supplement of paper PMC10126150.
Values marked as one replicate rest on one cluster of the flow cell; about a third of the high ones do not repeat.
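Also: ATP exposure 15 min at 22 °C before imaging.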

These sequences were tested on ATP (assay: switch fluorescence ratio, 500 uM ATP over buffer (Cy3 cluster intensity, sum of 5 cycles each) (fold (ratio)); higher = stronger signal-on switching upon ATP binding; sequences stand for … in TCGTCGGCAGCGTCAGATGTGTATAAGAGACAGTTTTTTTTTTTTTTTTTTTTTTTTT…TC). Details: aptamer strand: ATP DNA aptamer (quencher-CACCTGGGGGAGTATTGCGGAGGAAGG + anchor), 100 nM annealed; ATP concentration: 500 uM; one replicate.
Procedure, shortened: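 Switching-strand clusters labelled with Cy3 on a modified Illumina MiSeq flow-cell were annealed to 100 nM quencher-labelled ATP aptamer, imaged in selection buffer, and re-imaged after 15 min with 500 uM ATP at 22 °C. This was done over five cycles with NaOH stripping and re-annealing in between. The fluorescence ratio is summed target-cycle over summed buffer-cycle Cy3 intensity per cluster, averaged per switch-domain sequence, excluding clusters outside 100-1000 RFU.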
AGCTTAGTAA showed a switch fluorescence ratio of 0.99. AGCTTCTAG gave a switch fluorescence ratio of 1.04. With AGCTTGACAG the switch fluorescence ratio was 1.03. For AGCTTGTGTA, the switch fluorescence ratio was 0.975. With AGGAAAAGGA the switch fluorescence ratio was 0.997. Work on AGGAAACCCA yielded a switch fluorescence ratio of 1.02. Sequence AGGAAACGA has a switch fluorescence ratio of 1.02. Sequence AGGAACAATA has a switch fluorescence ratio of 1.01. With AGGAACACAA the switch fluorescence ratio was 1.06. With AGGAACGACT the switch fluorescence ratio was 0.967. For AGGAACTCCA, the switch fluorescence ratio was 0.99. In the case of AGGAAGCAGG, the switch fluorescence ratio is reported as 1.14. In the case of AGGAAGCTTC, the switch fluorescence ratio is reported as 1. For AGGAAGCTTG, the switch fluorescence ratio was 0.988. Work on AGGAAGTCAT yielded a switch fluorescence ratio of 1. For AGGAATAGGG, the switch fluorescence ratio was 0.993. Work on AGGAATGTGC yielded a switch fluorescence ratio of 0.959. In the case of AGGAATTTGC, the switch fluorescence ratio is reported as 0.966. Sequence AGGACACCCG has a switch fluorescence ratio of 0.955. AGGACCAATA gave a switch fluorescence ratio of 1.06. With AGGACGAGAT the switch fluorescence ratio was 0.987. Work on AGGACGAGCT yielded a switch fluorescence ratio of 1.06. Sequence AGGACGGGAG has a switch fluorescence ratio of 0.993. Sequence AGGACGTTGT has a switch fluorescence ratio of 0.993. In the case of AGGACTCAGA, the switch fluorescence ratio is reported as 1.04. In the case of AGGACTGCGT, the switch fluorescence ratio is reported as 0.973. With AGGACTGTTA the switch fluorescence ratio was 1.08. In the case of AGGACTTACG, the switch fluorescence ratio is reported as 1.06. With AGGAGACGTT the switch fluorescence ratio was 1.02. In the case of AGGAGAGAAG, the switch fluorescence ratio is reported as 1.03. In the case of AGGAGAGACG, the switch fluorescence ratio is reported as 1.03. AGGAGAGACT showed a switch fluorescence ratio of 1.01. AGGAGGAAAT was tested, and the switch fluorescence ratio was 1.03. Work on AGGAGGATTT yielded a switch fluorescence ratio of 0.979. Sequence AGGAGGTCTC has a switch fluorescence ratio of 1.02. In the case of AGGAGTATCC, the switch fluorescence ratio is reported as 0.972. AGGAGTATGC gave a switch fluorescence ratio of 0.975. Work on AGGAGTATT yielded a switch fluorescence ratio of 1. For AGGATAGGCG, the switch fluorescence ratio was 0.906. Work on AGGATGAAGT yielded a switch fluorescence ratio of 0.951. Sequence AGGATGATAA has a switch fluorescence ratio of 0.944. Work on AGGATGGTAG yielded a switch fluorescence ratio of 0.987. Work on AGGATGGTG yielded a switch fluorescence ratio of 0.955. For AGGATTCGAT, the switch fluorescence ratio was 0.978. Work on AGGATTTAG yielded a switch fluorescence ratio of 1.03. Sequence AGGCAACGGC has a switch fluorescence ratio of 1.05. Work on AGGCACATGG yielded a switch fluorescence ratio of 0.996. Sequence AGGCAGTTAG has a switch fluorescence ratio of 1. For AGGCATCTAG, the switch fluorescence ratio was 0.989. Sequence AGGCCCCTAA has a switch fluorescence ratio of 1.02. With AGGCCCTAAA the switch fluorescence ratio was 0.968. Work on AGGCCCTAAC yielded a switch fluorescence ratio of 0.989. AGGCCGTTAT was tested, and the switch fluorescence ratio was 1.04. AGGCCTAA was tested, and the switch fluorescence ratio was 0.975. In the case of AGGCCTGATC, the switch fluorescence ratio is reported as 1.09. In the case of AGGCCTTATT, the switch fluorescence ratio is reported as 1.05. AGGCGAAGTT showed a switch fluorescence ratio of 1.04. AGGCGAATGC was tested, and the switch fluorescence ratio was 0.998. For AGGCGACTGC, the switch fluorescence ratio was 0.998. With AGGCGAGGAA the switch fluorescence ratio was 0.997. Work on AGGCGATGCT yielded a switch fluorescence ratio of 1.06. With AGGCGCAAGG the switch fluorescence ratio was 1.08. AGGCGCCGTG showed a switch fluorescence ratio of 1. AGGCGCGCTG was tested, and the switch fluorescence ratio was 0.951. AGGCGGCAAC gave a switch fluorescence ratio of 1.06. Work on AGGCGGGATT yielded a switch fluorescence ratio of 1.04. AGGCGGTACG showed a switch fluorescence ratio of 1.03. AGGCGGTTCG showed a switch fluorescence ratio of 0.989. AGGCGTCATA gave a switch fluorescence ratio of 0.979. In the case of AGGCGTCTGG, the switch fluorescence ratio is reported as 0.97. AGGCGTTCGA gave a switch fluorescence ratio of 0.994. Work on AGGCGTTGG yielded a switch fluorescence ratio of 0.956. Sequence AGGCTACTAC has a switch fluorescence ratio of 1.11. AGGCTAGTCT showed a switch fluorescence ratio of 0.939. Sequence AGGCTAGTTA has a switch fluorescence ratio of 0.947. In the case of AGGCTCGGTA, the switch fluorescence ratio is reported as 0.958. AGGCTGGATT gave a switch fluorescence ratio of 0.978. Sequence AGGCTTAGCG has a switch fluorescence ratio of 0.982. AGGCTTATGC was tested, and the switch fluorescence ratio was 0.986. AGGCTTGGTA gave a switch fluorescence ratio of 0.935. Work on AGGCTTTAA yielded a switch fluorescence ratio of 1.02. AGGGAAAGAA was tested, and the switch fluorescence ratio was 0.944. With AGGGAAATCC the switch fluorescence ratio was 1.04. For AGGGAATCTA, the switch fluorescence ratio was 1.03. With AGGGACGTTA the switch fluorescence ratio was 1.12. With AGGGAGCA the switch fluorescence ratio was 1.02. Work on AGGGAGCGGA yielded a switch fluorescence ratio of 0.997. AGGGAGGACC gave a switch fluorescence ratio of 0.987. With AGGGAGTCC the switch fluorescence ratio was 0.921. Work on AGGGATGCCA yielded a switch fluorescence ratio of 1.01. Work on AGGGATTGAG yielded a switch fluorescence ratio of 1.01. In the case of AGGGCAG, the switch fluorescence ratio is reported as 1.04. AGGGCAGATG showed a switch fluorescence ratio of 1. For AGGGCATTTT, the switch fluorescence ratio was 1.1. In the case of AGGGCCTGTA, the switch fluorescence ratio is reported as 1.03. AGGGCGACGG showed a switch fluorescence ratio of 1.02. Sequence AGGGCGGGT has a switch fluorescence ratio of 1.11. In the case of AGGGCTAAAA, the switch fluorescence ratio is reported as 0.993. AGGGGACTCT gave a switch fluorescence ratio of 1.02. In the case of AGGGGATATG, the switch fluorescence ratio is reported as 0.966. AGGGGATCCA gave a switch fluorescence ratio of 0.976. Work on AGGGGCATGT yielded a switch fluorescence ratio of 1.01. For AGGGGCTACG, the switch fluorescence ratio was 1.02. With AGGGGCTGT the switch fluorescence ratio was 1.02. AGGGGGAGG was tested, and the switch fluorescence ratio was 0.948. Sequence AGGGGGCCGA has a switch fluorescence ratio of 1.03. With AGGGTACGGT the switch fluorescence ratio was 1.02. For AGGGTAGCCG, the switch fluorescence ratio was 0.919. With AGGGTATACG the switch fluorescence ratio was 0.998. In the case of AGGGTATTG, the switch fluorescence ratio is reported as 0.969. In the case of AGGGTCACGG, the switch fluorescence ratio is reported as 0.981. With AGGGTCATCC the switch fluorescence ratio was 1. With AGGGTCCAGA the switch fluorescence ratio was 0.952. AGGGTCCGT gave a switch fluorescence ratio of 0.998. Sequence AGGGTGAGCC has a switch fluorescence ratio of 1. In the case of AGGGTGGTCG, the switch fluorescence ratio is reported as 1.08. For AGGGTTACAT, the switch fluorescence ratio was 0.997. In the case of AGGGTTACGT, the switch fluorescence ratio is reported as 0.986. Work on AGGGTTCACG yielded a switch fluorescence ratio of 1.02. With AGGGTTCAGA the switch fluorescence ratio was 1.01. Work on AGGGTTTGCA yielded a switch fluorescence ratio of 0.983. AGGTAAGCAG gave a switch fluorescence ratio of 0.989. In the case of AGGTAATGTA, the switch fluorescence ratio is reported as 0.993. AGGTACGTGA gave a switch fluorescence ratio of 1.1. In the case of AGGTACTCGG, the switch fluorescence ratio is reported as 0.972. AGGTAGCTCA was tested, and the switch fluorescence ratio was 0.961. Sequence AGGTAGGACA has a switch fluorescence ratio of 0.979. In the case of AGGTAGTTAC, the switch fluorescence ratio is reported as 0.947. AGGTATACGT was tested, and the switch fluorescence ratio was 1.03. For AGGTATCATG, the switch fluorescence ratio was 0.95. In the case of AGGTATGCGC, the switch fluorescence ratio is reported as 0.974. Sequence AGGTATTTAT has a switch fluorescence ratio of 1.01. AGGTCAGAGC gave a switch fluorescence ratio of 1.01. With AGGTCATCTA the switch fluorescence ratio was 0.969. Work on AGGTCCTTGA yielded a switch fluorescence ratio of 0.985. For AGGTCGTGCG, the switch fluorescence ratio was 0.981. With AGGTCGTGG the switch fluorescence ratio was 0.955. In the case of AGGTCGTTGA, the switch fluorescence ratio is reported as 0.95. AGGTGACCAG gave a switch fluorescence ratio of 1.07. With AGGTGAGTCC the switch fluorescence ratio was 0.973. For AGGTGCAACA, the switch fluorescence ratio was 1.01. AGGTGCGCGG gave a switch fluorescence ratio of 1. AGGTGGCGGG showed a switch fluorescence ratio of 0.997. For AGGTGGGAGG, the switch fluorescence ratio was 0.979. Sequence AGGTGTATGG has a switch fluorescence ratio of 1.06. AGGTGTCGTT showed a switch fluorescence ratio of 1.04. For AGGTGTCTCG, the switch fluorescence ratio was 1.02. With AGGTGTGTTA the switch fluorescence ratio was 0.976. AGGTGTTGCC showed a switch fluorescence ratio of 1.02. AGGTTACGGC was tested, and the switch fluorescence ratio was 1.03. In the case of AGGTTATATC, the switch fluorescence ratio is reported as 1.02. AGGTTATCCT gave a switch fluorescence ratio of 1. For AGGTTATGGC, the switch fluorescence ratio was 1.08. In the case of AGGTTCCCAC, the switch fluorescence ratio is reported as 1. With AGGTTGCAAC the switch fluorescence ratio was 0.948. Sequence AGGTTGTAAG has a switch fluorescence ratio of 0.979. Work on AGGTTGTCAG yielded a switch fluorescence ratio of 0.991. For AGGTTGTTCG, the switch fluorescence ratio was 1.01. Sequence AGGTTTATAC has a switch fluorescence ratio of 1. For AGGTTTCGTG, the switch fluorescence ratio was 0.984. Work on AGGTTTGATG yielded a switch fluorescence ratio of 0.961. AGTAAACGAT gave a switch fluorescence ratio of 0.995. Work on AGTAAAGGAG yielded a switch fluorescence ratio of 1.01. In the case of AGTAACGTCA, the switch fluorescence ratio is reported as 1.07. AGTAACGTTG was tested, and the switch fluorescence ratio was 1.02. AGTAAGCTAA was tested, and the switch fluorescence ratio was 0.964. AGTAAGGGC was tested, and the switch fluorescence ratio was 1. AGTAAGGTAC was tested, and the switch fluorescence ratio was 1.03. AGTAAGTGTT was tested, and the switch fluorescence ratio was 0.998. With AGTAATGGA the switch fluorescence ratio was 0.976. With AGTAATTTCT the switch fluorescence ratio was 0.984. AGTACACGTC showed a switch fluorescence ratio of 0.993. Sequence AGTACATCCG has a switch fluorescence ratio of 0.972. AGTACCAGCG showed a switch fluorescence ratio of 1. For AGTACCAGTA, the switch fluorescence ratio was 1.05. Work on AGTACCTCTG yielded a switch fluorescence ratio of 0.988. AGTACGCGAA gave a switch fluorescence ratio of 1.17. For AGTACGCGGA, the switch fluorescence ratio was 0.97. AGTAGAGCTG was tested, and the switch fluorescence ratio was 0.952. AGTAGCCTTG showed a switch fluorescence ratio of 1.02. AGTAGGTTGA was tested, and the switch fluorescence ratio was 1.01. AGTAGTCCGG showed a switch fluorescence ratio of 0.957. AGTATAGCGT showed a switch fluorescence ratio of 0.95. Sequence AGTATCATAT has a switch fluorescence ratio of 1. Sequence AGTATCTGAC has a switch fluorescence ratio of 1.1. AGTATCTGTA gave a switch fluorescence ratio of 0.963. Work on AGTATGCGCT yielded a switch fluorescence ratio of 0.953. For AGTATGGGT, the switch fluorescence ratio was 0.966. AGTATGGTCA gave a switch fluorescence ratio of 0.992. For AGTATTTGT, the switch fluorescence ratio was 0.971. In the case of AGTCACGCGA, the switch fluorescence ratio is reported as 1.24. AGTCACGGCA showed a switch fluorescence ratio of 1.08. AGTCAGCCGC showed a switch fluorescence ratio of 1.06. In the case of AGTCAGGTCA, the switch fluorescence ratio is reported as 0.977. Work on AGTCCAAGT yielded a switch fluorescence ratio of 0.983. AGTCCAGGGG gave a switch fluorescence ratio of 0.923. In the case of AGTCCATTCG, the switch fluorescence ratio is reported as 0.993. AGTCCCACTT gave a switch fluorescence ratio of 1.15. Sequence AGTCCCGTGG has a switch fluorescence ratio of 0.987. For AGTCCGGCAC, the switch fluorescence ratio was 1.04. AGTCCGGCCG gave a switch fluorescence ratio of 0.983.
